The supplement of paper PMC10126150
Sequences with one replicate were seen in a single cluster, so their values are uncertain.

Test system: ATP
Experiment: switch fluorescence ratio, 500 uM ATP over buffer (Cy3 cluster intensity, sum of 5 cycles each) (fold (ratio)); higher = stronger signal-on switching upon ATP binding; sequences stand for … in TCGTCGGCAGCGTCAGATGTGTATAAGAGACAGTTTTTTTTTTTTTTTTTTTTTTTTT…TC
Settings: aptamer strand: ATP DNA aptamer (quencher-CACCTGGGGGAGTATTGCGGAGGAAGG + anchor), 100 nM annealed; ATP concentration: 500 uM; one replicate
Method in brief: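 Exposure to 500 uM ATP lasted 15 min at 22 °C before imaging, and a selection-buffer image was taken beforehand, for Cy3-labelled switching-strand clusters on a modified Illumina MiSeq flow-cell annealed to 100 nM quencher-labelled ATP aptamer. Five buffer/ATP cycles were run with NaOH stripping and re-annealing between them. The fluorescence ratio per cluster is summed target-cycle over summed buffer-cycle Cy3 intensity, averaged per switch-domain sequence. Clusters outside 100-1000 RFU were excluded.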

Row | Sequence | switch fluorescence ratio
1 | TCGGCTATTA | 1.06
2 | TGTCATAACG | 1.03
3 | GGAAGTTGTG | 0.964
4 | CAATCTCTCT | 1.02
5 | GTGAGCCTGA | 1
6 | CTGTGATCAT | 1.02
7 | ATCATTGCAT | 1.01
8 | TCCGTGTGTC | 1.06
9 | TATGGACCAA | 0.965
10 | ACACGGGCAT | 1.03
11 | ATGTAATAGA | 0.977
12 | AAACCGACTT | 1.27
13 | TAGAACGATC | 0.966
14 | TAAACGCGGT | 1.05
15 | TATATTAATT | 1.07
16 | GGAGAAAGTA | 0.974
17 | ATGTAAGCTT | 1.01
18 | GCTTAGGCCT | 1.03
19 | GATATCGGTT | 0.955
20 | ATACAATAAA | 0.96
21 | TTGATACCCC | 1.45
22 | TATCTATATA | 0.996
23 | TTCCAGGGTA | 1.2

Row | Sequence | switch fluorescence ratio
24 | TCGTTAGTAA | 1.01
25 | TCATCTGGTA | 1.07
26 | ACGGGGCCTT | 1.01
27 | GAAAGTCATA | 1.01
28 | ATGTCGCATT | 1.05
29 | AGTAAGCAAA | 1.04
30 | CTGCCTATGA | 1.03
31 | TATCGTAATT | 0.98
32 | CAGGGGCTGC | 0.973
33 | GATAGGAGTG | 0.987
34 | CATTTGTTC | 1.05
35 | CCACAGGCCA | 1.07
36 | TGAATTTC | 0.971
37 | GTGGGGAAAT | 0.984
38 | TAAGCGCTAT | 1.02
39 | GGCCGATAGG | 1.06
40 | TATCTTGTGG | 0.99
41 | CTCCTGTGCG | 1.06
42 | GTGAGGGGAT | 0.985
43 | ATCTTGGGTA | 1.03
44 | TTCTGTCGGG | 0.971
45 | TTTGTGGCT | 1
46 | TCCTATGATG | 0.978

Row | Sequence | switch fluorescence ratio
47 | TAGATACTT | 1.12
48 | TTCTGACTCG | 1.02
49 | CTGCCTTCTT | 1.05
50 | AACTCTGCTG | 1.07
51 | GCTTCAAGGG | 0.934
52 | CGGAATATAC | 2.23
53 | TACGGCAGCA | 1.13
54 | AGGTTCCTGG | 0.962
55 | AGCAGTTGTT | 1
56 | TGATTAGTTC | 0.994
57 | GCAGGTCCAG | 1.08
58 | CCTACAGGGT | 1.1
59 | TTGGAGTGCC | 1.07
60 | CGGGTAACCT | 1.62
61 | GTTAAACCAG | 0.97
62 | TTCTTCCTTC | 1.43
63 | AAGTTCTTCA | 1.05
64 | GTCATTCGGA | 1.03
65 | ATTAGGTTTG | 0.974
66 | AGAGGAAGCA | 1.01
67 | GTTTAATGCG | 0.928
68 | ATATGCAGCG | 0.989
69 | CACATAAGAT | 0.954

Row | Sequence | switch fluorescence ratio
70 | GGGGTTACTT | 1.03
71 | AGGGTAACGC | 1.08
72 | GGGTCCTCTT | 0.951
73 | TCTTTGTCCT | 1.01
74 | GATCCCTGGG | 1.08
75 | GTATCCCGCT | 1.01
76 | GATCCCTCGT | 0.991
77 | ACTGGCGTTG | 1.03
78 | AATGTTTACT | 1.02
79 | AGCAATCTT | 1.78
80 | CTTCTGGTA | 0.953
81 | GCCCGAATCT | 1.08
82 | TATGTATCGT | 1
83 | GTGTCTCTAG | 0.941
84 | TAGGATATGC | 0.998
85 | TGGCGTTGAA | 0.97
86 | TCTTTGGAAA | 1
87 | GCAAAAATTG | 1.04
88 | ATCCTGTAGG | 0.992
89 | GAATGACGCC | 0.99
90 | GGGTTAAGA | 0.978
91 | TACGAAGTTG | 0.983
92 | GCTTTGTCCT | 1.04

Row | Sequence | switch fluorescence ratio
93 | GGTAATCCGA | 0.975
94 | ATACCGGGGG | 1.01
95 | CGAGGTATAA | 1.17
96 | AGGTGCTCTA | 1.05
97 | TCTAGACGGA | 1.04
98 | CGATAGAGAC | 1.07
99 | GAAAACTTTT | 1.02
100 | TCCGCGAGTG | 1.98
101 | GGCTGCCGC | 0.966
102 | ACACCGGAC | 1.73
103 | ACGGTGACTG | 1.06
104 | CAAGCGAGGG | 1.02
105 | GTTCTAGACT | 1.04
106 | ATTATTTCCA | 1.02
107 | ATGGGTAACC | 0.986
108 | GTGTATACA | 0.966
109 | TAGTCGGACA | 0.973
110 | CAGGCTTTGT | 0.963
111 | AAAGTTAGGC | 0.956
112 | TTAACCGCAC | 2.55
113 | TTGAACTTTT | 0.998
114 | ACAGGCCTGG | 1.04
115 | GAATTCATGT | 0.999

Row | Sequence | switch fluorescence ratio
116 | TCTCGGCGAA | 1.18
117 | GACCCCGGAG | 1.48
118 | GGATTTTACA | 0.988
119 | TCGCGATTGT | 1.05
120 | GGTAGGTTAC | 1.04
121 | AAAAAGTAGT | 0.99
122 | ACAGGTGATA | 1.56
123 | TATTGGTGCT | 0.988
124 | GTGGATGATA | 0.948
125 | GGTAGGAGTC | 0.975
126 | TCGATGGATC | 1.01
127 | TACTCTCCTG | 1.11
128 | TCGCTACATT | 0.991
129 | GGCGATAGAG | 1.05
130 | CTCCCTCCTA | 1.15
131 | ATGCGTCTGG | 1.02
132 | TGCGAGGTTT | 0.994
133 | TACTTTGGTG | 1.03
134 | ATTAGCAGGT | 1.02
135 | CGTAGAAAGC | 1
136 | TGTGTGTCGG | 0.941
137 | AACGGATTAC | 2.56
138 | GACTCTGCGG | 1.17

Row | Sequence | switch fluorescence ratio
139 | GCGTTTAGGA | 1.02
140 | AGACTCGGGG | 0.981
141 | GCAAAGGTAA | 0.972
142 | CCCCGGATGT | 1.75
143 | AAAGGGGAT | 0.996
144 | TTGCGAGCAC | 1.15
145 | TCTACTACGC | 1.42
146 | TAATGGTGG | 0.991
147 | TCCCACACGG | 1.29
148 | CTCATTTGGA | 1.01
149 | ATTCAACAGA | 0.957
150 | ATCGAGTGGT | 0.993
151 | CCAAGCTTTC | 3.31
152 | TTATGAATAA | 1.03
153 | CAGGGATGTC | 1.04
154 | GACGATCCAG | 1
155 | ATCGTCCGTC | 0.978
156 | CTCAGCTGGC | 0.987
157 | CCAGCCTCAC | 3.41
